We go through 42 sequences from paper PMC7819943, “Rice protein-binding microarrays: a tool to detect cis-acting elements near promoter regions in rice”.

The other results are listed elsewhere or left out.

The experiment has as its target T1, OsWOX13 (Oryza sativa, UniProt Q5QMM3 1-267).
T1 sequence: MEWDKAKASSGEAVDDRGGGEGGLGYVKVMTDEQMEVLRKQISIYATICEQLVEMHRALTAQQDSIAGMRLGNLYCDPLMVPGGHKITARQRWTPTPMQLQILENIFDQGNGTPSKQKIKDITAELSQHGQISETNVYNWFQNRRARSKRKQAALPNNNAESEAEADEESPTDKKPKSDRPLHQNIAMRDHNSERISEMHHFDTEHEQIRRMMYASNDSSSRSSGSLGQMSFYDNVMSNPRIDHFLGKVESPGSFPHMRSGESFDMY
The experiment is described as follows: protein-binding microarray (RPBM); PBS, 2% BSA, 51.3 ng/ul salmon testes DNA, 50 uM zinc acetate, 200 nM TF, 25 C, 1 h; high values mean tight binding. The note with it: protein: recombinant; tags: N-terminal polyhistidine and DsRed monomer fusion (pET32a); label: CyDye5-dUTP incorporated in the synthesized complementary strand; 3' TTTTT single-stranded linker to array surface; dsDNA, one strand shown. The procedure, abridged:
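A custom Agilent array was converted to double-stranded form by primer extension with Cy5-dUTP and blocked with 2% BSA. Protein at 200 nM in PBS with 2% BSA, salmon testes DNA and 50 µM zinc acetate was applied for 1 h at 25 °C, followed by washing. The proteins were polyhistidine–DsRed N-terminal fusions of transcription factors, expressed in E. coli BL21-CodonPlus and Ni–NTA-purified. The binding signal is per-feature fluorescence intensity (arbitrary units) from an Axon 4000B scanner.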
Turning to “GGAACAAATTGCATATATCCACGGAAGACTCAACAACAGCCGGAGTCACCTAGTGCAG”, the binding signal is 3620 fluorescence intensity (a.u.).

For “CTGCAAATTAGAAGTTCAAGCACACATTTGTAAGGTGCAACGGAGTCACCTAGTGCAG”, the binding signal was 4650 fluorescence intensity (a.u.).

For the sequence “GGAAATTTGTGGTATCCCCTGCATTGAAGAAGAAAATCACCGGAGTCACCTAGTGCAG”, the binding signal was 3180 fluorescence intensity (a.u.).

For “GTGGGTGAAATTTGGGTTAACATCATGACATGTGTTATGACGGAGTCACCTAGTGCAG”, the binding signal was 3310 fluorescence intensity (a.u.).

Consider “TCTTCCCCATGATTATGTCAGAGCTATCAATGCACAGATGCGGAGTCACCTAGTGCAG”, for which the binding signal was 7180 fluorescence intensity (a.u.).

As to “TGCAAATTGTGCTTTTCTATTCTGTTGTGTCTTCTGCTTTCGGAGTCACCTAGTGCAG”, the binding signal was 6060 fluorescence intensity (a.u.).

As to “GATTCAGTGATAGCACTGATTGGTCTGGGTGATATGGCCTCGGAGTCACCTAGTGCAG”, the binding signal is 28600 fluorescence intensity (a.u.).

As to “CCAGATTAATCCTAACCTAAATAAATACACCCAAACCCTACGGAGTCACCTAGTGCAG”, the binding signal is 4040 fluorescence intensity (a.u.).

Turning to “ATATCTTTATTGTAATCAATTTTCAACGACGACTAGTTCTCGGAGTCACCTAGTGCAG”, the binding signal is 3950 fluorescence intensity (a.u.).

“CAGATTTGATTTTCACAGCATACCAGCTCATTATCTTGATCGGAGTCACCTAGTGCAG”: the binding signal is 23100 fluorescence intensity (a.u.).

Regarding “AAGTTAAATTTAGAAGTTGAAACTCTACCAAACATACCCTCGGAGTCACCTAGTGCAG”, the binding signal was 5110 fluorescence intensity (a.u.).

“GATGATGTGACTGAAAAGTTGTGTGTGTATAACAGATTGACGGAGTCACCTAGTGCAG”: the binding signal was 12500 fluorescence intensity (a.u.).

On to “TTTAATTTAACACATATAAATTACTACATCCGTTCTAGAACGGAGTCACCTAGTGCAG”, for which the binding signal was 4640 fluorescence intensity (a.u.).

In the case of “CAAACTTTATATAGTCCAATCAAATTCAGATGGAGAAATGCGGAGTCACCTAGTGCAG”, the binding signal is 3600 fluorescence intensity (a.u.).

“GCGGTGGCGGTTGGGGTGGCGAGTGGGGAGGAGGAGGCGGCGGAGTCACCTAGTGCAG”: the binding signal is 7370 fluorescence intensity (a.u.).

Take “CATCATTAATTTCTGTAGCTAGGCCCATATAATTTGTGCACGGAGTCACCTAGTGCAG”: the binding signal was 9910 fluorescence intensity (a.u.).

As to “TAATTTATACTGTGATTATAATATATTTACAACTGATAAACGGAGTCACCTAGTGCAG”, the binding signal was 5940 fluorescence intensity (a.u.).

As to “AGATGCTGCATGGTTGATTGGTTTCAAGTAATTTCATGGGCGGAGTCACCTAGTGCAG”, the binding signal is 7340 fluorescence intensity (a.u.).

With “TTTAGACAGATGGGCTGAACTGATCTCGCGGGCTGGGCTGCGGAGTCACCTAGTGCAG”, the binding signal was 18100 fluorescence intensity (a.u.).

In the case of “GTTAATTAGATCATGATAAAGATTAATGTATAGATCGAGGCGGAGTCACCTAGTGCAG”, the binding signal was 62000 fluorescence intensity (a.u.).

With “TATGGTAGATTATTTAACTATATGGTAGATTATACTGTAGCGGAGTCACCTAGTGCAG”, the binding signal was 4370 fluorescence intensity (a.u.).

Regarding “TCAGATTGAACGACCAATACTATATGCCAATTGAATGAGCCGGAGTCACCTAGTGCAG”, the binding signal was 30600 fluorescence intensity (a.u.).

Turning to “TGCTGAGTTAGCCAGATAGATTGGGTCAACGAGTCATGTTCGGAGTCACCTAGTGCAG”, the binding signal was 3520 fluorescence intensity (a.u.).

As to “ATATATTTATCATCAATTCCCGCTGTCACTAGCTAGAACGCGGAGTCACCTAGTGCAG”, the binding signal is 3950 fluorescence intensity (a.u.).

As to “AAACTCCAATTATATTAAATTTGGACTCCTTCCAAATTCGCGGAGTCACCTAGTGCAG”, the binding signal is 14400 fluorescence intensity (a.u.).

Take “ATAACTAATCATTGAGAAAATATATGGTCGAAGATAATGCCGGAGTCACCTAGTGCAG”: the binding signal is 17200 fluorescence intensity (a.u.).

“CTTCCAAATTGATTCCCTATTAGCCACAAATAATTCTTCACGGAGTCACCTAGTGCAG”: the binding signal is 18700 fluorescence intensity (a.u.).

As to “TTTGCAATTTTCTCTAAATTAAATAAGATGGTTCCTAGCCCGGAGTCACCTAGTGCAG”, the binding signal is 4420 fluorescence intensity (a.u.).

On to “TTTCCGGGATATAATTGGCACGTAAGCGCCACGTTAATGCCGGAGTCACCTAGTGCAG”, for which the binding signal is 7100 fluorescence intensity (a.u.).

With “CGCCCCTGCTAATTGGACCAAGGTTCCTAAATCAGTGGTACGGAGTCACCTAGTGCAG”, the binding signal is 13400 fluorescence intensity (a.u.).

Turning to “AAGCGTGCTAATTAAGTTGTGCAGTTAACTAGTGCTCCATCGGAGTCACCTAGTGCAG”, the binding signal is 5260 fluorescence intensity (a.u.).

Consider “CATGATATTAACATATTGATATTTACATAATTTGTAGTGACGGAGTCACCTAGTGCAG”, for which the binding signal is 14900 fluorescence intensity (a.u.).

“ATTCTGTAATTTATTTTGTTATTAGACTATATTTAATATTCGGAGTCACCTAGTGCAG”: the binding signal is 8530 fluorescence intensity (a.u.).

Consider “TCCCAATTTGCCGTTACTGGATCAATAAGCTCACATATATCGGAGTCACCTAGTGCAG”, for which the binding signal is 5210 fluorescence intensity (a.u.).

“ATGGGAGTTTGTCCTAATTATTGTTTATAATTTTGATATCCGGAGTCACCTAGTGCAG”: the binding signal is 5460 fluorescence intensity (a.u.).

Turning to “AAGCCCCAAACCTGATTGCTCTTGTCTAAAATCTACCCCACGGAGTCACCTAGTGCAG”, the binding signal is 4500 fluorescence intensity (a.u.).

Take “ATATAACAAACCCCAAGTAATTAACTGCAGGACTACTGGACGGAGTCACCTAGTGCAG”: the binding signal is 4160 fluorescence intensity (a.u.).

As for “ACCTCTAATTTATTAATCCAGTATACATAAGTTCAGTGGGCGGAGTCACCTAGTGCAG”, the binding signal is 34500 fluorescence intensity (a.u.).

On to “TCCTCATCTGTCATTAGTCATGATCAAATTTTCTTTTCCACGGAGTCACCTAGTGCAG”, for which the binding signal is 7890 fluorescence intensity (a.u.).

Take “TTACGTAAAATGGATTCAATTAGGATTACCGCCAAACTTACGGAGTCACCTAGTGCAG”: the binding signal is 7320 fluorescence intensity (a.u.).

For the sequence “TAGAATCAATCATCATGCAACAACTCCACATGAGCCCATTCGGAGTCACCTAGTGCAG”, the binding signal is 10700 fluorescence intensity (a.u.).

Take “TCTTATGTGCTAATTAACTTTGCTCGTTTGCTACTCTACTCGGAGTCACCTAGTGCAG”: the binding signal was 7200 fluorescence intensity (a.u.).
